From the supplement of paper PMC8728848
Some of the results follow.

Key:
Experiment in all cases: glycan array binding signal (z-score within array); higher = stronger binding
Settings in all cases: glycan notation: IUPAC condensed, linker removed; mutation: D109R
[1] = molecular target: Neu5Ac(a2-6)Gal(b1-4)GlcNAc(b1-3)Gal(b1-4)GlcNAc(b1-3)Gal(b1-4)GlcNAc
Method in brief: (§1)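 The binding signal is a Z-score computed within each array and averaged over linkers. Arrays of the same protein sequence at different concentrations or buffers were also averaged together. Data originate from 3228 arrays in the Consortium for Functional Glycomics database, kept only where the protein sequence was available.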

[2] = molecular target: Neu5Ac(a2-6)Gal(b1-4)GlcNAc(b1-3)Gal(b1-4)GlcNAc(b1-3)Gal(b1-4)GlcNAc(b1-2)Man(a1-3)[Neu5Ac(a2-6)Gal(b1-4)GlcNAc(b1-3)Gal(b1-4)GlcNAc(b1-3)Gal(b1-4)GlcNAc(b1-2)Man(a1-6)]GalNAc
Method in brief: as §1

[3] = molecular target: Neu5Ac(a2-6)Gal(b1-4)GlcNAc(b1-3)Gal(b1-4)GlcNAc(b1-3)GalNAc
Method in brief: as §1

[4] = molecular target: Neu5Ac(a2-6)Gal(b1-4)GlcNAc(b1-3)Gal(b1-4)GlcNAc(b1-3)[Neu5Ac(a2-6)Gal(b1-4)GlcNAc(b1-3)Gal(b1-4)GlcNAc(b1-6)]GalNAc
Method in brief: as §1

[5] = molecular target: Neu5Ac(a2-6)Gal(b1-4)GlcNAc(b1-3)Gal(b1-4)GlcNAc(b1-6)[Gal(b1-3)]GalNAc
Method in brief: as §1

[6] = molecular target: Neu5Ac(a2-6)Gal(b1-4)GlcNAc(b1-3)Gal(b1-4)[Fuc(a1-3)]GlcNAc(b1-3)Gal(b1-4)[Fuc(a1-3)]GlcNAc
Method in brief: as §1

[7] = molecular target: Neu5Ac(a2-6)Gal(b1-4)GlcNAc(b1-3)GalNAc
Method in brief: as §1

[8] = molecular target: Neu5Ac(a2-6)Gal(b1-4)GlcNAc(b1-3)[Neu5Ac(a2-6)Gal(b1-4)GlcNAc(b1-6)]GalNAc
Method in brief: as §1

[9] = molecular target: Neu5Ac(a2-6)Gal(b1-4)GlcNAc(b1-6)GalNAc
Method in brief: as §1

[10] = molecular target: Neu5Ac(a2-6)Gal(b1-4)GlcNAc(b1-6)[Gal(b1-3)GlcNAc(b1-3)]Gal(b1-4)Glc
Method in brief: as §1

[11] = molecular target: Neu5Ac(a2-6)Gal(b1-4)GlcNAc(b1-6)[Gal(b1-3)]GalNAc
Method in brief: as §1

[12] = molecular target: Neu5Ac(a2-6)Gal(b1-4)GlcNAc6S
Method in brief: as §1

Neu5Ac(a2-6)GalNAc = molecular target: Neu5Ac(a2-6)GalNAc
Method in brief: as §1

[13] = molecular target: Neu5Ac(a2-6)GalNAc(b1-4)GlcNAc
Method in brief: as §1

[14] = molecular target: Neu5Ac(a2-6)GalNAc(b1-4)GlcNAc6S
Method in brief: as §1

[15] = molecular target: Neu5Ac(a2-6)GlcNAc(b1-4)GlcNAc
Method in brief: as §1

[16] = molecular target: Neu5Ac(a2-6)GlcNAc(b1-4)GlcNAc(b1-4)GlcNAc
Method in brief: as §1

Neu5Ac(a2-8)Neu5Ac = molecular target: Neu5Ac(a2-8)Neu5Ac
Method in brief: as §1

[17] = molecular target: Neu5Ac(a2-8)Neu5Ac(a2-3)Gal(b1-3)GalNAc(b1-4)[Neu5Ac(a2-3)]Gal(b1-4)Glc
Method in brief: as §1

[18] = molecular target: Neu5Ac(a2-8)Neu5Ac(a2-3)Gal(b1-3)GalNAc(b1-4)[Neu5Ac(a2-8)Neu5Ac(a2-3)]Gal(b1-4)Glc
Method in brief: as §1

[19] = molecular target: Neu5Ac(a2-8)Neu5Ac(a2-3)Gal(b1-4)Glc
Method in brief: as §1

[20] = molecular target: Neu5Ac(a2-8)Neu5Ac(a2-3)Gal(b1-4)GlcNAc
Method in brief: as §1

[21] = molecular target: Neu5Ac(a2-8)Neu5Ac(a2-3)[Gal(b1-3)GalNAc(b1-4)]Gal(b1-4)Glc
Method in brief: as §1

[22] = molecular target: Neu5Ac(a2-8)Neu5Ac(a2-3)[GalNAc(b1-4)]Gal(b1-4)Glc
Method in brief: as §1

[23] = molecular target: Neu5Ac(a2-8)Neu5Ac(a2-8)Neu5Ac
Method in brief: as §1

[24] = molecular target: Neu5Ac(a2-8)Neu5Ac(a2-8)Neu5Ac(a2-3)Gal(b1-4)Glc
Method in brief: as §1

[25] = molecular target: Neu5Ac(a2-8)Neu5Ac(a2-8)Neu5Ac(a2-3)[Gal(b1-3)GalNAc(b1-4)]Gal(b1-4)Glc
Method in brief: as §1

[26] = molecular target: Neu5Ac(a2-8)Neu5Ac(a2-8)Neu5Ac(a2-3)[GalNAc(b1-4)]Gal(b1-4)Glc
Method in brief: as §1

[27] = molecular target: Neu5Ac(a2-8)Neu5Ac(a2-8)Neu5Ac(a2-8)Neu5Ac(a2-3)[GalNAc(b1-4)]Gal(b1-4)Glc
Method in brief: as §1

[28] = molecular target: Neu5Ac(a2-8)Neu5Gc(a2-3)Gal(b1-4)GlcNAc
Method in brief: as §1

[29] = molecular target: Neu5Ac(b2-6)Gal(b1-4)GlcNAc
Method in brief: as §1

Neu5Ac(b2-6)GalNAc = molecular target: Neu5Ac(b2-6)GalNAc
Method in brief: as §1

[30] = molecular target: Neu5Ac9Ac(a2-3)Gal(b1-3)GlcNAc
Method in brief: as §1

[31] = molecular target: Neu5Ac9Ac(a2-3)Gal(b1-4)GlcNAc
Method in brief: as §1

[32] = molecular target: Neu5Ac9Ac(a2-6)Gal(b1-4)GlcNAc
Method in brief: as §1

[33] = molecular target: Neu5Gc(a2-3)Gal(b1-3)GlcNAc
Method in brief: as §1

[34] = molecular target: Neu5Gc(a2-3)Gal(b1-3)[Fuc(a1-4)]GlcNAc
Method in brief: as §1

Neu5Gc(a2-3)Gal(b1-4)Glc = molecular target: Neu5Gc(a2-3)Gal(b1-4)Glc
Method in brief: as §1

[35] = molecular target: Neu5Gc(a2-3)Gal(b1-4)GlcNAc
Method in brief: as §1

[36] = molecular target: Neu5Gc(a2-3)Gal(b1-4)GlcNAc(b1-3)Gal(b1-4)GlcNAc(b1-2)Man(a1-3)[Neu5Gc(a2-3)Gal(b1-4)GlcNAc(b1-3)Gal(b1-4)GlcNAc(b1-2)Man(a1-6)]Man(b1-4)GlcNAc(b1-4)GlcNAc
Method in brief: as §1

[37] = molecular target: Neu5Gc(a2-3)Gal(b1-4)[Fuc(a1-3)]GlcNAc
Method in brief: as §1

[38] = molecular target: Neu5Gc(a2-6)Gal(b1-4)GlcNAc
Method in brief: as §1

Neu5Gc(a2-6)GalNAc = molecular target: Neu5Gc(a2-6)GalNAc
Method in brief: as §1

[39] = molecular target: Neu5Gc(a2-8)Neu5Ac(a2-3)Gal(b1-4)GlcNAc
Method in brief: as §1

[40] = molecular target: Neu5Gc(a2-8)Neu5Gc(a2-3)Gal(b1-4)GlcNAc
Method in brief: as §1

B1: MpL2 (Macrolepiota procera) (protein)
chain: MSTQVSSGQTYKITNVKAGTVIDLSGEDNKSIIGYPYHSGKNQQWTFNWTGKAWTLRSASSGSYLGIEGTPADGTRLVAVNDPFEWHIWRDEANENAFRIFVPFTNYNLRLSGYGDTTPGTPVQLWWTWEGLHQTWTIDRP
Q: With B1 as the binder, how does the “glycan array binding signal (z-score)” value [1] read?
A: -0.253

Q: And the “glycan array binding signal (z-score)” value [2]?
A: -0.063

Q: And the “glycan array binding signal (z-score)” value [3]?
A: -0.261

Q: And the “glycan array binding signal (z-score)” value [4]?
A: 0.019

Q: What about the “glycan array binding signal (z-score)” value [5] of the same binder?
A: -0.233

Q: What about the “glycan array binding signal (z-score)” value [6] of the same binder?
A: -0.251

Q: What about the “glycan array binding signal (z-score)” value [7] of the same binder?
A: -0.278

Q: What about the “glycan array binding signal (z-score)” value [8] of the same binder?
A: -0.255

Q: And the “glycan array binding signal (z-score)” value [9]?
A: -0.236

Q: What about the “glycan array binding signal (z-score)” value [10] of the same binder?
A: -0.167

Q: What about the “glycan array binding signal (z-score)” value [11] of the same binder?
A: -0.26

Q: What about the “glycan array binding signal (z-score)” value [12] of the same binder?
A: -0.289

Q: And the “glycan array binding signal (z-score)” value (Neu5Ac(a2-6)GalNAc)?
A: -0.276

Q: What about the “glycan array binding signal (z-score)” value [13] of the same binder?
A: -0.301

Q: What about the “glycan array binding signal (z-score)” value [14] of the same binder?
A: -0.265

Q: What about the “glycan array binding signal (z-score)” value [15] of the same binder?
A: -0.275

Q: What about the “glycan array binding signal (z-score)” value [16] of the same binder?
A: -0.329

Q: What about the “glycan array binding signal (z-score)” value (Neu5Ac(a2-8)Neu5Ac) of the same binder?
A: -0.256

Q: What about the “glycan array binding signal (z-score)” value [17] of the same binder?
A: -0.26

Q: And the “glycan array binding signal (z-score)” value [18]?
A: -0.131

Q: And the “glycan array binding signal (z-score)” value [19]?
A: -0.256

Q: What about the “glycan array binding signal (z-score)” value [20] of the same binder?
A: -0.318

Q: What about the “glycan array binding signal (z-score)” value [21] of the same binder?
A: -0.26

Q: What about the “glycan array binding signal (z-score)” value [22] of the same binder?
A: -0.268

Q: And the “glycan array binding signal (z-score)” value [23]?
A: -0.264

Q: And the “glycan array binding signal (z-score)” value [24]?
A: -0.272

Q: What about the “glycan array binding signal (z-score)” value [25] of the same binder?
A: -0.19

Q: What about the “glycan array binding signal (z-score)” value [26] of the same binder?
A: -0.234

Q: What about the “glycan array binding signal (z-score)” value [27] of the same binder?
A: -0.261

Q: And the “glycan array binding signal (z-score)” value [28]?
A: -0.299

Q: And the “glycan array binding signal (z-score)” value [29]?
A: -0.254

Q: And the “glycan array binding signal (z-score)” value (Neu5Ac(b2-6)GalNAc)?
A: -0.265

Q: What about the “glycan array binding signal (z-score)” value [30] of the same binder?
A: -0.279

Q: What about the “glycan array binding signal (z-score)” value [31] of the same binder?
A: -0.202

Q: And the “glycan array binding signal (z-score)” value [32]?
A: -0.27

Q: What about the “glycan array binding signal (z-score)” value [33] of the same binder?
A: -0.259

Q: And the “glycan array binding signal (z-score)” value [34]?
A: -0.256

Q: What about the “glycan array binding signal (z-score)” value (Neu5Gc(a2-3)Gal(b1-4)Glc) of the same binder?
A: -0.353

Q: What about the “glycan array binding signal (z-score)” value [35] of the same binder?
A: -0.272

Q: And the “glycan array binding signal (z-score)” value [36]?
A: -0.268

Q: And the “glycan array binding signal (z-score)” value [37]?
A: -0.275

Q: What about the “glycan array binding signal (z-score)” value [38] of the same binder?
A: -0.25

Q: And the “glycan array binding signal (z-score)” value (Neu5Gc(a2-6)GalNAc)?
A: -0.288

Q: And the “glycan array binding signal (z-score)” value [39]?
A: -0.27

Q: What about the “glycan array binding signal (z-score)” value [40] of the same binder?
A: -0.26
